# Test results from PubChem BioAssay (NCATS).
# The inconclusive results got no clear call from the source; some entries with a clear call stand among them for comparison. For some assays here: Potencies of inconclusive entries are left out as doubtful fits. Active and inactive are the calls of the source. Unless noted, calls follow the shape of the dose curve; as a rule, active = well fitted curve in the direction sought with a large enough effect; inconclusive = small, poorly fitted or top-dose-only effect, or another doubt; inactive = no such curve, though single readings can be large; an effect the other way counts as inactive or inconclusive.
# Assays:
# [1] = qHTS Assay for Identification of Small Molecule Antagonists for NFkB Signaling Pathway (AID 895; active = well fitted inhibition curve with a large enough effect in the signal ratio, with a control signal flat, not every such curve was filed as active; inconclusive = small, poorly fitted or top-dose-only effect, or effect the other way, or a change in a side signal; the % refers to the signal ratio; also: % is scaled to controls: 0 for no effect and ±100 for the full control effect); conditions: NFkB beta-lactamase reporter cells, FRET ratio 460/530; activity change, negative = inhibition: at 38.3 µM (top of the series) unless noted
# In short: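 Beta-lactamase reporter read-out (460 and 530 nm emission ratio, 405 nm excitation, 2 hrs substrate loading RT) after 5 hr stimulation with 10 pM TNF alpha in compound-treated NFkB-bla ME-180 cells in low-serum medium.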
# [2] = biological target: Cytochrome P450 2C19 (Homo sapiens) (UniProt P33261); experiment: qHTS Assay for Inhibitors and Substrates of Cytochrome P450 2C19 (AID 899); also: top concentration of the series differs between compounds; % is scaled to controls: 0 for no effect and ±100 for the full control effect; nearly all actives have a fitted effect of over 60% in size
# In short: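 Reactions contain 5nM enzyme, 10uM Luciferin-H EGE (KM) and 50mM KPO4; compound preincubates 10 min at 37C, NADPH regeneration starts turnover for 60 min. Luminescence after detection reagent gives activity.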
# [3] = qHTS Assay for Identification of Small Molecule Agonists for Thrombopoietin (TPO) Signaling Pathway (AID 917); also: % is scaled to controls: 0 for no effect and ±100 for the full control effect
# In short: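 First, Ba/F3 cells with human TPO receptor were held overnight without IL-3. Next, compounds and TPO (26 pM final) were added. After 24 hrs at 37 C, luciferase detection reagent was added and luminescence measured following 10 min at room temperature.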
# [4] = qHTS Assay for Identification of Small Molecule Antagonists for Thrombopoietin (TPO) Signaling Pathway (AID 918); conditions: TPO-dependent cell signaling reporter, antagonist mode; activity change, negative = inhibition: at 38.5 µM (top of the series); also: nearly all actives have a fitted effect of over 60% in size
# In short: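 Inhibition read as reduced luciferase luminescence after 24 h at 37 C in IL-3-deprived Ba/F3 cells carrying human TPO receptor and GPIIb-promoter reporter, stimulated with 26 pM TPO (final, its EC50) alongside compound.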
# [5] = qHTS for differential inhibitors of proliferation of Plasmodium falciparum line 7G8 (AID 1815);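 also: parasite growth measured after three days of incubation; plate controls were vehicle wells for no effect and reference inhibitor wells for full effect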
# [6] = qHTS for differential inhibitors of proliferation of Plasmodium falciparum line W2 (AID 1883); conditions: Potency: Plasmodium falciparum W2 proliferation inhibition;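 also: parasites grown with compound for 72 h before lysis and staining; 0% = vehicle wells and -100% = control inhibitor wells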
# [7] = biological target: RecQ-like DNA helicase BLM (Homo sapiens) (UniProt P54132); experiment: qHTS Validation Assay for Inhibitors of Bloom's syndrome helicase (BLM) (AID 2364);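 also: plate controls were DMSO vehicle for no effect and enzyme-free control for full effect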
# In short: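 Forked 20-bp duplex substrate (200 nM, TAMRA/BHQ-2) plus 2 mM ATP added after 15 min compound preincubation with 50 nM enzyme, pH 8.0, poly(dI-dC) 2.5 ug/ml. Strand separation followed by fluorescence (525/598 nm) over 2 h, normalized to enzyme-free and DMSO controls.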
# [8] = Cytometry Cell-Based qHTS for Inhibitors of the mTORC1 Signaling Pathway in MEF cells (AID 2668); also: potency is read from the fitted curve at half-maximal effect
# In short: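 WT MEFs (Tsc2-/-, p53-/- stably re-expressing WT Tsc2) in DMEM + 10% FBS received compounds 24 hrs after plating, for 24 hrs at 37 degree Celsius. Fixed cells stained with Alexa-488 anti-phospho-rpS6 Ser235/236 and propidium iodide; laser-scanning cytometry read-out.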
# [9] = biological target: ATP-dependent 6-phosphofructokinase (Trypanosoma brucei brucei) (UniProt O15648); experiment: qHTS Validation Assay to Find Inhibitors of T. brucei phosphofructokinase (AID 485368); also: potency is read from the fitted curve at half-maximal effect
# In short: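 Luminescent ADP detection measures PFK turnover of fructose-6-phosphate (0.5 mM) with ATP (0.1 mM) at pH 8.0. Reaction runs 45 min at room temperature with 1.25 nM enzyme; inhibitors tested as titrations up to 57 uM.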
# [10] = biological target: Chromobox protein homolog 1 (Homo sapiens) (UniProt P83916); experiment: qHTS Validation Assay for Inhibitors of HP1-beta Chromodomain Interactions with Methylated Histone Tails (AID 488953);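 also: loss of AlphaScreen luminescence from HP1-beta binding biotinylated H3K9me3 peptide; % is scaled to controls: 0 for no effect and ±100 for the full control effect; nearly all actives have a fitted effect of over 50% in size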
# In short: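 AlphaScreen proximity signal from streptavidin donor and nickel chelate acceptor beads (final 10 ug/mL) after 30 min dark incubation. Compounds had 30 min at room temperature with preformed complex of 50 nM HP1-beta and 50 nM b-H3(1-18)K9me3 in PBS pH 7.4 with 0.01% Tween-20.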
# [11] = biological target: ATPase family AAA domain-containing protein 5 (Homo sapiens) (UniProt Q96QE3); experiment: Validation screen for small molecules that inhibit ELG1-dependent DNA repair in human embryonic kidney (HEK293T) cells expressing luciferase-tagged ELG1 (AID 493107); conditions: HEK293T ELG1-luciferase level, luminescence, 5-fluorouridine co-treatment, 16 h; activity change, negative = decrease: at 46.1 µM (top of the series);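 also: % is scaled to controls: 0 for no effect and ±100 for the full control effect; inhibitors lower the ELG1-luciferase luminescence signal; nearly all actives have a fitted effect of over 70% in size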
# In short: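 Luciferase read-out, ONE-Glo, 30 min at room temperature, follows 16 h co-exposure at 37 C of compound and the DNA-damaging agent 5-fluorouridine. Cells: HEK293T with ELG1-luciferase fusion, 2,000 per well, DMSO as vehicle.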
# [12] = biological target: Lysine-specific demethylase 5B (Homo sapiens) (UniProt Q9UGL1); experiment: Optimization screen for KDM5B Histone Demethylases FDH coupled qHTS against the LOPAC library (AID 1347166); conditions: KDM5B demethylation, FDH-coupled NADH fluorescence (FDH is formaldehyde dehydrogenase); activity, negative = inhibition: at 57.5 µM (top of the series) unless noted; also: 0% is about no effect
# In short: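 KDM5BDeltaAP (200nM final) in 50mM HEPES pH 7.5, 0.01% Tween-20 was preincubated with compound for 10 min at room temperature. A substrate mix of 12.5uM H3K4Me3, 25uM a-ketoglutarate, ascorbate, Fe2+, NAD+ and formaldehyde dehydrogenase was then added. NADH fluorescence (340/450 nm) was read initially and after 30 min.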
# [13] = qHTS to identify inhibitors of the type 1 interferon - major histocompatibility complex class I in skeletal muscle: primary screen against the NCATS LOPAC collection (AID 1347405);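 also: lytic HiBiT luminescence reporting HLA-B protein level; % is scaled to controls: 0 for no effect and ±100 for the full control effect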
# In short: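 After 24 h at 37 C with compounds (7-point, 1:4.3 dilutions, 46 uM top final) plus 4 ng/ml IFN-beta, luminescence from lytic HiBiT detection was measured. HLA-B*08:01 in C25cl48 myoblasts carried an endogenous C-terminal HiBiT tag; medium lacked dexamethasone.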
# [14] = Primary qHTS for small molecule stabilizers of the endoplasmic reticulum resident proteome: Secreted ER Calcium Modulated Protein (SERCaMP) assay (AID 1508630); conditions: SH-SY5Y GLuc-SERCaMP secretion, thapsigargin, luminescence; activity change, negative = inhibition: at 38.4 µM (top of the series); also: potency is read from the fitted curve at half-maximal effect
# In short: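 The SH-SY5Y reporter protocol was run at 3 concentrations up to 38.3 uM (primary) or 11 concentrations (follow-up): 16 h compound, 100 nM thapsigargin for 4 h, then extracellular luciferase luminescence.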
# [15] = UWB1.289 Cancer Cell Toxicity qHTS against the NCATS CANVASS Library (AID 1347347); also: % is scaled to controls: 0 for no effect and ±100 for the full control effect; nearly all actives have a fitted effect of over 60% in size
# In short: (§1)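 Viability was assessed by adding CellTiter-Glo reagent to treated cultures and reading luminescence after 15min at room temperature. Treatment lasted 72 h at 37 degrees C/5% CO2, using an 11-point series on 1000 cells/well.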
# [16] = HEK-293 Cancer Cell Toxicity qHTS against the NCATS CANVASS Library (AID 1347355); also: nearly all actives have a fitted effect of over 65% in size
# In short: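 Toxicity was measured as CellTiter-Glo luminescence after 72 h exposure to an 11-point compound series. Compound was added to 1000 cells/well 4 h after seeding.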
# [17] = biological target: Luciferin 4-monooxygenase (Photinus pyralis) (UniProt P08659); experiment: Firefly luciferase counterscreen qHTS: Assay Interference Panel against the NCATS CANVASS Library (AID 1347363); also: 0% is about no effect
# In short: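 Luminescence inhibition readout: compounds (11-point qHTS) sat 15 min at room temperature with substrate mix (0.013 mM luciferin and ATP), then firefly luciferase was added and signal read 5 min later.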
# [18] = KB-3-1 Cancer Cell Toxicity qHTS against the NCATS CANVASS Library (AID 1347366); also: % is scaled to controls: 0 for no effect and ±100 for the full control effect; nearly all actives have a fitted effect of over 75% in size
# In short: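 KB-3-1 cells (500 cells/well) in DMEM + 10% FBS were treated with compounds for 72 hr at 37C, 5% CO2. Viability was read as CellTiter-Glo luminescence after 10 minutes at room temperature.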
# [19] = biological target: Nuclear receptor subfamily 1 group I member 3 (Homo sapiens) (UniProt Q14994); experiment: qHTS for Constitutive Androstane Receptor (CAR) Antagonist screened against the NCATS CANVASS Library (AID 1347372); also: potency is read from the fitted curve at half-maximal effect
# In short: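 Antagonist mode: compound added alongside 50 nM CITCO to HepG2-hCAR-CYP2B6 reporter cells, 24hr at 37C. Viability by CellTiter-Fluor fluorescence, then CAR-driven luciferase by ONE-Glo luminescence.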
# [20] = Secretion counterscreen for inhibitors of the SERCaMP assay screened against the NCATS CANVASS Library (AID 1347390);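 also: light from luciferase secreted into medium read as a measure of general secretion; % is scaled to controls: 0 for no effect and ±100 for the full control effect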
# In short: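 SH-SY5Y cells expressing constitutively secreted GLuc, 1000 cells/well, attached 4 h at 37C, then exposed to compounds (0.001 - 77 uM, 11-pnt series) for 20 h. Coelenterazine added; luminescence read to flag secretory-pathway interferers.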
# [21] = qHTS for inhibitors of Wild type Zika virus screened against the NCATS CANVASS Library (AID 1347396); also: potency is read from the fitted curve at half-maximal effect
# In short: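 Vero 766 (African green monkey) cells, 1000 per well, attached overnight, then compounds were added in an 11-point series before wild-type Zika virus infection. After 72 h at 37C, cell viability was read as CellTiter Glo luminescence.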
# [22] = qHTS for inhibitors of Rabies Virus screened against the NCATS CANVASS Library (AID 1347402; calls by dose curve; also: potency is read from the fitted curve at half-maximal effect)
# [23] = Panc-1005 Cancer Cell Toxicity qHTS against the NCATS CANVASS Library (AID 1347349); also: % is scaled to controls: 0 for no effect and ±100 for the full control effect; nearly all actives have a fitted effect of over 60% in size
# In short: as §1
# [24] = U-118MG Cancer Cell Toxicity qHTS against the NCATS CANVASS Library (AID 1347351); also: potency is read from the fitted curve at half-maximal effect
# In short: as §1
# [25] = qHTS for inhibitors of ER calcium dysfunction: SERCaMP assay screened against the NCATS CANVASS Library (AID 1347393); conditions: SH-SY5Y GLuc-SERCaMP (Gaussia luciferase released on ER calcium loss) secretion, thapsigargin, luminescence; activity change, negative = inhibition: at 76.6 µM (top of the series); also: potency is read from the fitted curve at half-maximal effect; nearly all actives have a fitted effect of over 40% in size
# In short: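 Thapsigargin-induced ER calcium depletion drives GLuc-SERCaMP secretion from SH-SY5Y cells; compounds given 16 h beforehand were scored by lowered coelenterazine luminescence after 4 h challenge.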
# Tags tell the direction and shape of the fitted curve.
# Chain of UniProt P08659 (P08659 whole entry, looked up): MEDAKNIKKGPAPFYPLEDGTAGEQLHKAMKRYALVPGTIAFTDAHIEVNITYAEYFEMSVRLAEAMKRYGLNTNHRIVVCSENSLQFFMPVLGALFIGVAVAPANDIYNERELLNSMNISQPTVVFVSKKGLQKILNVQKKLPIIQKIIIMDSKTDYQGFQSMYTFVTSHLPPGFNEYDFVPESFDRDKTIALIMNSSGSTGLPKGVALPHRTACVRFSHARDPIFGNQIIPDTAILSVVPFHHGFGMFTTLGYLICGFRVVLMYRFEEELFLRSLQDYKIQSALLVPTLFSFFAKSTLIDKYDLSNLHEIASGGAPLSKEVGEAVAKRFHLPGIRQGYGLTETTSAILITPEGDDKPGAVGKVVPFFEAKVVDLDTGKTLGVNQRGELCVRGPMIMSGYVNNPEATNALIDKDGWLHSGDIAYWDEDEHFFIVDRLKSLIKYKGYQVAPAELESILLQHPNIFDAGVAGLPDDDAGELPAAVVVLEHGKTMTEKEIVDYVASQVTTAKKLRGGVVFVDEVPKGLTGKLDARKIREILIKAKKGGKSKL
# Chain of UniProt Q96QE3 (Q96QE3 whole entry, looked up, the tested form may be a part): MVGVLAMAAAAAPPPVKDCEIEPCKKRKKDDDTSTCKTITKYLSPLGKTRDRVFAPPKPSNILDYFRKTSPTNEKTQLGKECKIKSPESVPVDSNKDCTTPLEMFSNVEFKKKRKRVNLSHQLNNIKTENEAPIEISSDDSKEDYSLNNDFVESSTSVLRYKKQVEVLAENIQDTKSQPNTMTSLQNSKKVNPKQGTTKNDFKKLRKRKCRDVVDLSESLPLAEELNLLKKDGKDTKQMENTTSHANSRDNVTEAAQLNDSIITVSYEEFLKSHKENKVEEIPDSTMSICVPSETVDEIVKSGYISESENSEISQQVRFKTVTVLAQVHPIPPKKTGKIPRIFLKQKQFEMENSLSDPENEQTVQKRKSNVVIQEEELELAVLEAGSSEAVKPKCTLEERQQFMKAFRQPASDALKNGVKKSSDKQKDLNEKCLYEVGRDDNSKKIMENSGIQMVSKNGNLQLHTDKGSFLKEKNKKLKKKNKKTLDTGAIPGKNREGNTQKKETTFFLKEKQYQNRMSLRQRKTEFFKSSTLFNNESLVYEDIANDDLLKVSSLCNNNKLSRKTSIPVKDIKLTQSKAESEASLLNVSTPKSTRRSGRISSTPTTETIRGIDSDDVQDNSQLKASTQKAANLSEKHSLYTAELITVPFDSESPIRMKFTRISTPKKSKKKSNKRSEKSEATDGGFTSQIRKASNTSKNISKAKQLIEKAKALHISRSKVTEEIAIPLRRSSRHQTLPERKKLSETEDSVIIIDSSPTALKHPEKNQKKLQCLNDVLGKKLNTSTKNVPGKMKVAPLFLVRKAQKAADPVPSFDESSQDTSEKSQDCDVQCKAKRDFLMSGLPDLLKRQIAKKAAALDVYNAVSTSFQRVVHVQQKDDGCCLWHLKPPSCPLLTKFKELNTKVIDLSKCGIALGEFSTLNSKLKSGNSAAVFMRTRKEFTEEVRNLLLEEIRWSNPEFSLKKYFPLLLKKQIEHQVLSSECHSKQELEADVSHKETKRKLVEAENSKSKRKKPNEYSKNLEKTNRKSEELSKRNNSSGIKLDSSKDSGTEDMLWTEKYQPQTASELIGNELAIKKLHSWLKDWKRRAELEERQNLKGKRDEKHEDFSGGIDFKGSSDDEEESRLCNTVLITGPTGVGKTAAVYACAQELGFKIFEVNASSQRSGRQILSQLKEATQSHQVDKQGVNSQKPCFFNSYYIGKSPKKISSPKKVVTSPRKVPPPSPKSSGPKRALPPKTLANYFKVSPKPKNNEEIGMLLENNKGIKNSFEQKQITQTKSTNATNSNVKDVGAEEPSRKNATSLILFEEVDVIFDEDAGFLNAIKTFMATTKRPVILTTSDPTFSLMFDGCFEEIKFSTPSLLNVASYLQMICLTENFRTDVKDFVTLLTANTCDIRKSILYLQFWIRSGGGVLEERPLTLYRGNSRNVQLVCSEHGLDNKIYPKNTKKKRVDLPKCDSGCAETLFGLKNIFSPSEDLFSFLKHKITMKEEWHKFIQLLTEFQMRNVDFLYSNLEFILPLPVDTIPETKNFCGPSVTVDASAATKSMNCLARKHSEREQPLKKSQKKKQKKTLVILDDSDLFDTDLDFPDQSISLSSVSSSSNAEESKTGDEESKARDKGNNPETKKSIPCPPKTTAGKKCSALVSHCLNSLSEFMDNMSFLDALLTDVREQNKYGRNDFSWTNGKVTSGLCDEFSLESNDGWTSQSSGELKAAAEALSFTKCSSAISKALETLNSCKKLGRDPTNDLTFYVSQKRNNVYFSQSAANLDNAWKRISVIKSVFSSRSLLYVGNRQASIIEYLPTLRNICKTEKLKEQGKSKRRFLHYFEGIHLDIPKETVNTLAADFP
# Chain of UniProt P33261 (P33261 whole entry, looked up): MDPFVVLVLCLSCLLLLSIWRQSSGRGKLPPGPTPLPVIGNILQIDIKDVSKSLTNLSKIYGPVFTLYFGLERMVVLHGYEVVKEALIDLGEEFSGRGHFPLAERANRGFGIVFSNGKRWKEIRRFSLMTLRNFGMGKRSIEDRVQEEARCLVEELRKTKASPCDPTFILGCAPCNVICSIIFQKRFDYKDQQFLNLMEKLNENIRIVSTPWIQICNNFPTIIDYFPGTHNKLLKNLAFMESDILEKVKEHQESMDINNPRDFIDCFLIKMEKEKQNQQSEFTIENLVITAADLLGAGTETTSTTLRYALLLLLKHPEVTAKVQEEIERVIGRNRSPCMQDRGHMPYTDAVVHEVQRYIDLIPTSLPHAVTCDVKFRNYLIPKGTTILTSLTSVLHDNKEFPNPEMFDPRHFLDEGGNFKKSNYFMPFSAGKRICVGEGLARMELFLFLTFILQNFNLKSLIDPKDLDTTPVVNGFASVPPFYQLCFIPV
# Chain of UniProt Q9UGL1 (Q9UGL1 whole entry, looked up): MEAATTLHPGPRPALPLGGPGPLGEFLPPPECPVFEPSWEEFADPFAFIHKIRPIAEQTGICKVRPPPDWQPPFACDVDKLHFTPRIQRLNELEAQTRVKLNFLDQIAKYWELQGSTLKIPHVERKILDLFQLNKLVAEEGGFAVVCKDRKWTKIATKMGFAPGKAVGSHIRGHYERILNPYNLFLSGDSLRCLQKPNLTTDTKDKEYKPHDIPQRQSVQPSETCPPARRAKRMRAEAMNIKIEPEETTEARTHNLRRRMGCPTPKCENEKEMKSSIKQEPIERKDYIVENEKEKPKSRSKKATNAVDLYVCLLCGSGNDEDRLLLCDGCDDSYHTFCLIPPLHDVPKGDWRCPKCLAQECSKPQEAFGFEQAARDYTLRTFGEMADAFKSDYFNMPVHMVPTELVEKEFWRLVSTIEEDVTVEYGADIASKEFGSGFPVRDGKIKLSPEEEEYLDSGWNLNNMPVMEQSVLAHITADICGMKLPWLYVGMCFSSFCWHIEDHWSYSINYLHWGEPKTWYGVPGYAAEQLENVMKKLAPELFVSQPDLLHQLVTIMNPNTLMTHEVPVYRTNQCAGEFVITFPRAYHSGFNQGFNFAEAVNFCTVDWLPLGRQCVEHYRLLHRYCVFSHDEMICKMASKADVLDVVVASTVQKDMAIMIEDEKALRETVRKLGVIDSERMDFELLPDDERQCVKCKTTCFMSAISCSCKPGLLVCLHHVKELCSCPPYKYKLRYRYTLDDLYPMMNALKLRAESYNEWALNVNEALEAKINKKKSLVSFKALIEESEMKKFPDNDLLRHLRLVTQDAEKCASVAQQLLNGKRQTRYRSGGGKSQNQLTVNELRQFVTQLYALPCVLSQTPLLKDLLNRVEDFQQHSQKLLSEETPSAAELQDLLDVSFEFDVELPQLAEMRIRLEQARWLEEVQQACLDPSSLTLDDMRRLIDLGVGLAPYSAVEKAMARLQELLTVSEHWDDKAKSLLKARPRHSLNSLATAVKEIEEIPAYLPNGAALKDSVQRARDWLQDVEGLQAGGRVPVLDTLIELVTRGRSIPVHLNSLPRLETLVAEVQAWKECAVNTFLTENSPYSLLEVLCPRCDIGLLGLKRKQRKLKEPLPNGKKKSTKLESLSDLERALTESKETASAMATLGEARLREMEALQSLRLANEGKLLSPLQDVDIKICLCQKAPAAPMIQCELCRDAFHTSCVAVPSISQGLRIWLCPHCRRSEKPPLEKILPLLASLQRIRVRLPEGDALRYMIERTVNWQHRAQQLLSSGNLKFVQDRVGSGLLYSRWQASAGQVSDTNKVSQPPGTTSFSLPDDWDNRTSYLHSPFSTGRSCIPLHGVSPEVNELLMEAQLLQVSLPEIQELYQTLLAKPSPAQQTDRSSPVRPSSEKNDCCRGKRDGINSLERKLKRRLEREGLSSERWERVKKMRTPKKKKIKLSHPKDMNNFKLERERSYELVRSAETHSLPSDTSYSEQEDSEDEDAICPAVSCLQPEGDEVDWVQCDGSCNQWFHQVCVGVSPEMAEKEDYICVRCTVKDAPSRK
# Chain of UniProt O15648 (O15648 whole entry, looked up): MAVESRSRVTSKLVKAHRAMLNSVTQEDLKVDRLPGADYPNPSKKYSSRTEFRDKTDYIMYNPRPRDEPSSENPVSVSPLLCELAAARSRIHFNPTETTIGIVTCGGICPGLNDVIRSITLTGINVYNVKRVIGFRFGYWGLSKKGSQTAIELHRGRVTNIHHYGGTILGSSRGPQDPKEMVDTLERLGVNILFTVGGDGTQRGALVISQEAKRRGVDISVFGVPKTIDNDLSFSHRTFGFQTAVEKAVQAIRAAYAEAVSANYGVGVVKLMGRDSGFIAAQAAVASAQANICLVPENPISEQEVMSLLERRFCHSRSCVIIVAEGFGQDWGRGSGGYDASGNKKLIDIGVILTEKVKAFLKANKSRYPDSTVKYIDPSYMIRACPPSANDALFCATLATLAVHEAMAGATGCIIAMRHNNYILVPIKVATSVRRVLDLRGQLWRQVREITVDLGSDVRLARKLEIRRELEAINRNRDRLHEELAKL
# Chain of UniProt P83916 (P83916 whole entry, looked up): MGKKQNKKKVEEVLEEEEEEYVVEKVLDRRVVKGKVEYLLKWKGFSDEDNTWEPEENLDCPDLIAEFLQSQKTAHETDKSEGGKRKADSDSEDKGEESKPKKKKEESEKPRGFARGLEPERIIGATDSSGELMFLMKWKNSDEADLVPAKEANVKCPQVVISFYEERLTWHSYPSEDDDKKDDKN
smiles,measurement,setting,value
Cn1cnc(CCN)c1,Potency,[1],inactive
same,Potency,[2],inactive
same,Potency,[3],inactive
same,"activity change, negative = inhibition",[4],inconclusive: -14.8% [phenotype inactive]
same,Potency,[5],inactive
same,Potency,[6],inactive
same,Potency,[7],inactive
same,Potency,[8],"inconclusive [falling, single point]"
same,Potency,[9],"inconclusive [falling, full curve, poor fit]"
same,Potency,[10],inactive
same,Potency,[11],inactive
same,Potency,[12],inactive
same,Potency,[13],inactive
same,Potency,[14],"inconclusive [inhibitor, partial curve, poor fit]"
CCN1C[C@]2(C)CC[C@@H](O)[C@]34C1[C@H](C[C@H]23)C12CCC(CC14)[C@](O)(CO)[C@H]2O (stereo partly specified),Potency,[15],inactive
same,Potency,[16],inactive
same,Potency,[17],inactive
same,Potency,[18],inactive
same,Potency,[19],"inconclusive [inhibitor, partial curve, poor fit]"
same,Potency,[20],inactive
same,Potency,[21],"inconclusive [inhibitor, full curve, poor fit]"
C=CC(=C)CC[C@]1(C)[C@H]2C[C@H](OC(=O)C(C)CC)C=C3[C@H](OC(C)=O)O[C@H](OC(C)=O)[C@@]32[C@H](OC)C[C@@H]1C (stereo partly specified),Potency,[22],"inconclusive [inhibitor, full curve]"
CC(=O)O[C@@H]1C=C2C(=O)OC[C@]2(O)[C@@]2(C)CCCC(C)(C)[C@H]12,Potency,[22],"inconclusive [inhibitor, full curve, poor fit]"
c1ccc2c3c([nH]c2c1)CNCC3,Potency,[23],inactive
same,Potency,[24],"inconclusive [cytotoxic, single point]"
same,Potency,[25],"inconclusive [inhibitor, partial curve, poor fit]"
